According to article PMC4336329 (PLoS ONE, 2015):
Among all 310,000 compounds or so, about 2,200 (0.71%) showed an effect of 50% or more. The effect is printed as a negative number. This is one part of the list.

target: human ether-à-go-go-related gene (hERG) potassium channel (human, UniProt Q12809); assay: primary screen, population patch clamp on CHO cells stably expressing hERG
Sequence (Q12809 whole entry, looked up): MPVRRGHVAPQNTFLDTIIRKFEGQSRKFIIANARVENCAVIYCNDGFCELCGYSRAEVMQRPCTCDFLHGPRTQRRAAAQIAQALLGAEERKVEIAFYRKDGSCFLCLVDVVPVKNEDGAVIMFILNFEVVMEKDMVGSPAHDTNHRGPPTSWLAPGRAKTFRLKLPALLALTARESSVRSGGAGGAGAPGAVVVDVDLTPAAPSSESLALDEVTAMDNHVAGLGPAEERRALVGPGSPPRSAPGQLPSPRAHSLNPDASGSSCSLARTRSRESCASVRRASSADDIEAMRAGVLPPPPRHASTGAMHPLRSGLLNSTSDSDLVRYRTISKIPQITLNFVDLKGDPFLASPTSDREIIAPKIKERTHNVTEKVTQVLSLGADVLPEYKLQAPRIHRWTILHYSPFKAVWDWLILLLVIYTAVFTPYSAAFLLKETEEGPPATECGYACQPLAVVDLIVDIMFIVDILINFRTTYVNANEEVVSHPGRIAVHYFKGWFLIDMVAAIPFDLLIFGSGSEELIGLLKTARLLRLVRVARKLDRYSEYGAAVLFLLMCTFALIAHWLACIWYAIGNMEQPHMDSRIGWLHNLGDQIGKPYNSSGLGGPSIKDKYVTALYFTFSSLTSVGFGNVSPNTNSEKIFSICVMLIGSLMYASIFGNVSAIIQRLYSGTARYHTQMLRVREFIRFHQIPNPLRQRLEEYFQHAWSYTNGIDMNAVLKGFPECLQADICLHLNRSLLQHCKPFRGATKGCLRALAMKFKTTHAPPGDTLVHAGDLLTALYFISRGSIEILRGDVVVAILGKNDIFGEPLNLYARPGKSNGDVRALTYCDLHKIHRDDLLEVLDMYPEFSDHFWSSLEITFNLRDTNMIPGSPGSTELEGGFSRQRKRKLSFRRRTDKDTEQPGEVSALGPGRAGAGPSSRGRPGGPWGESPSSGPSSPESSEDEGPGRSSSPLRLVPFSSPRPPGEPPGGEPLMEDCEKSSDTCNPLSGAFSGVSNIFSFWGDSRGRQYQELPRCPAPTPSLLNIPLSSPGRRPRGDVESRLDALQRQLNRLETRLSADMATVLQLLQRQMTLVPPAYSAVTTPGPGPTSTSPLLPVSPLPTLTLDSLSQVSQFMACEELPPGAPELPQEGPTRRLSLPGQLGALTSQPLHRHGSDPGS

Going from `COc1ccc(CC(=O)N2CCN(c3cccc(C)c3C)CC2)cc1` to `COc1ccc(C(=O)CCC(=O)N2CCN(c3ccccc3)CC2)cc1`, the “hERG current change (%, negative = inhibition) at 1uM” value falls from 8.58% to 1.21%.

First: CC(NC(=O)Cc1cccs1)c1ccccc1 (stereo not shown)
Second: Cc1onc(-c2ccccc2)c1C(=O)NCc1ccco1
The “hERG current change (%, negative = inhibition) at 1uM” value of the first is higher: 20.3% for the first, 7.69% for the second.

First: CC(=O)c1c(C)[nH]c(C(=O)OCC(=O)N2CCN(S(=O)(=O)c3ccc(C)cc3C)CC2)c1C
Second: CCOC(=O)c1c(C)[nH]c(C(=O)CSc2nc3ccccc3o2)c1C
The “hERG current change (%, negative = inhibition) at 1uM” value of the first is lower: 1.54% for the first, 9.24% for the second.

First: COc1ccccc1CNC(=O)[C@@H]1CCCN1S(=O)(=O)c1ccc(Cl)cc1
Second: COc1ccc(OC)c(C(=O)c2ccc(Cl)cc2)c1
The “hERG current change (%, negative = inhibition) at 1uM” value of the first is lower: 9.34% for the first, 10.4% for the second.

Compared with `COC(=O)c1cccc(N(C(=O)c2ccco2)C(C(=O)NC2CCCC2)c2ccc(N3CCOCC3)cc2)c1` (stereo not shown), `O=S(=O)(c1ccc(F)cc1)c1nc(-c2ccccc2)oc1N1CCOCC1` is lower in “hERG current change (%, negative = inhibition) at 1uM” value: 7.88% for the first, 3.6% for the second.

First: O=[N+]([O-])c1cc(-c2csc(NCCc3nc4cc(Cl)c(N5CCCCC5)cc4n3CCCO)n2)ccc1Cl
Second: COc1ccc(-c2nnc(NC(=O)c3ccccc3[N+](=O)[O-])s2)c(OC)c1
The “hERG current change (%, negative = inhibition) at 1uM” value of the first is higher: 13% for the first, -10.6% for the second.

Going from `CCOC(=O)CCCn1c(C)nc(=O)c(-c2ccccc2)c1C` to `CCn1nc(C)c(CN2CCCC(CO)(Cc3ccccc3)C2)c1C` (stereo not shown), the “hERG current change (%, negative = inhibition) at 1uM” value falls from 5.37% to 4.08%.

Going from `CCOc1ccc(Nc2ncnc3c2nnn3Cc2ccccc2)cc1` to `CCOc1ccc(OCc2cccc(C(=O)N/N=C/c3cccnc3)c2)cc1`, the “hERG current change (%, negative = inhibition) at 1uM” value falls from 7.29% to 3.77%.

Going from `O=C(NCc1cccc(Cl)c1)c1ccc2c(c1)OCCO2` to `CSc1cccc(CNC(=O)C2CCC(=O)N(CCc3ccccn3)C2)c1` (stereo not shown), the “hERG current change (%, negative = inhibition) at 1uM” value falls from 16.6% to 15.2%.

Compared with `COc1ccc(C(CC(=O)O)NS(=O)(=O)c2ccc3c(c2)N(C(C)=O)CC(C)O3)cc1` (stereo not shown), `CC(C)(C)c1ccc(C(=O)Nc2ccc(CC(=O)O)cc2)o1` is lower in “hERG current change (%, negative = inhibition) at 1uM” value: 21.6% for the first, -8.3% for the second.

Going from `CCCNC(=O)c1sc2c(c1C(=O)Nc1ccccn1)CCCC2` to `Cc1nn(CC(=O)NNC(=O)c2ccccc2F)c([N+](=O)[O-])c1Br`, the “hERG current change (%, negative = inhibition) at 1uM” value rises from 1.7% to 8.13%.

Compared with `COC(=O)c1ccc(NC(=O)CN2C(=O)CCC2=O)cc1`, `CC(C)Cn1c(=O)c(C(=O)Nc2ccccc2S(N)(=O)=O)c(O)c2ccccc21` is lower in “hERG current change (%, negative = inhibition) at 1uM” value: 8.98% for the first, -3.63% for the second.

First: Cc1cccc(-n2c(Cc3cc(=O)[nH]c(=O)[nH]3)nnc2SCC(=O)NCc2ccco2)c1
Second: COc1cccc(C(=O)C2CCCN(Cc3cccc(-n4nc(C)cc4C)c3)C2)c1 (stereo not shown)
The “hERG current change (%, negative = inhibition) at 1uM” value of the first is higher: 5.36% for the first, -30.5% for the second.

Going from `CCCCC1=CC2=CC(=O)C(C)(OC(=O)c3ccc(Cl)nc3)C(=O)C2=CO1` (stereo not shown) to `CCc1noc(C)c1C(=O)OC(C)C(=O)Nc1ccc(Cl)cn1` (stereo not shown), the “hERG current change (%, negative = inhibition) at 1uM” value falls from 6.32% to 3.15%.

First: CC(OC(=O)c1ccc(Cl)c(S(=O)(=O)N2CCCC2)c1)C(=O)NC1CCCCC1C (stereo not shown)
Second: CCOC(=O)N1CCN(C(=O)c2cc3c(-c4ccc(Cl)cc4)nn(C)c3s2)CC1
The “hERG current change (%, negative = inhibition) at 1uM” value of the first is higher: 8.79% for the first, -8.32% for the second.

First: Cc1cccc(NC(=O)CCc2c(C)nc3ncnn3c2C)n1
Second: Cc1noc(C)c1CSCC(=O)Nc1cc(C(F)(F)F)ccc1N1CCOCC1
The “hERG current change (%, negative = inhibition) at 1uM” value of the first is higher: 8.65% for the first, -3.73% for the second.

Going from `CSc1nc(C(=O)N2CCc3c([nH]c4ccccc34)C2c2ccccn2)cs1` (stereo not shown) to `O=c1c2ccccc2nc(-c2ccccc2)n1-c1ccccn1`, the “hERG current change (%, negative = inhibition) at 1uM” value falls from 16.1% to 13.4%.

Compared with `CN(Cc1cc([N+](=O)[O-])ccc1Cl)C(=O)C[n+]1ccccc1.[Cl-]`, `CC(=O)c1ccc(-c2nnc(CCC(=O)N(C)Cc3cccc4cnccc34)o2)s1` is lower in “hERG current change (%, negative = inhibition) at 1uM” value: 15.9% for the first, -15% for the second.

Compared with `Cc1nn(-c2cc(C)c3ccccc3n2)c2c1C1C(C2)C1(C)C` (stereo not shown), `Cc1cc(C)c(C#N)c(Oc2ccccc2Br)n1` is higher in “hERG current change (%, negative = inhibition) at 1uM” value: 9.73% for the first, 17.9% for the second.

Compared with `COc1ccc(N2CCN(Cc3cc(=O)oc4ccc(Cl)cc34)CC2)cc1`, `COc1ccc(CN2C(=O)[C@H]3Cc4c([nH]c5ccccc45)C(C)(C)N3C2=O)cc1` is higher in “hERG current change (%, negative = inhibition) at 1uM” value: 10.3% for the first, 15.9% for the second.

Compared with `CC(=O)c1ccc(-n2cc(-c3ccc(C(C)(C)C)cc3)[n+]3c2SCCC3)cc1.[Br-]`, `CNC(=O)/C(C#N)=C/c1c(N2CCN(c3ccccc3)CC2)nc2c(C)cccn2c1=O` is higher in “hERG current change (%, negative = inhibition) at 1uM” value: -4.85% for the first, 1.76% for the second.

For `Cc1ccccc1C(=O)NC(=S)NCCc1ccccc1`, the “hERG current change (%, negative = inhibition) at 1uM” value was 3.4%.
